{"source": "PubChem BioAssay AID720542", "about": "(National Center for Advancing Translational Sciences (NCATS), 2013)", "note": "Screen size: about 360,000 compounds; about 740 (0.21%) were called active. The inconclusive results got no clear call from the source; some entries with a clear call stand among them for comparison. Calls follow the shape of the dose curve; as a rule, active = well fitted inhibition curve with a large enough effect; inconclusive = small, poorly fitted or top-dose-only effect; inactive = no such curve, though single readings can be large or run the other way. Potencies of inconclusive entries are left out as doubtful fits. Potency is read from the fitted curve at half-maximal effect; tags tell the direction and shape of the fitted curve."}
{"test_system": "Plasmodium falciparum AMA1 (3D7) - RON2 peptide interaction", "experiment": "qHTS for Inhibitors of AMA1-RON; Towards Development of Antimalarial Drug Lead: Primary Screen; also: nearly all actives have a fitted effect of over 45% in size", "conditions": "AlphaScreen AMA1-biotinylated RON2 peptide binding; series mostly up to 58.2 µM", "procedure,_shortened": "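AMA1 (3D7) with his tag at 25 nM final met compounds first, then biotinylated RON2 peptide at 25 nM; detection used donor plus acceptor beads, 10 µg/mL apiece, read by AlphaScreen after 30 min at room temperature.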"}
{"smiles": "C#CCOCCOCCOCCNc1nc(N2CCN(C(=O)CCCCCCCCCCNC(=O)[C@H](CCCCN)n3cc(CCO)nn3)CC2)nc(N2CCN(C(=O)CCCCCCCCCCNC(=O)[C@H](CCCCN)n3cc(C[C@@H](C)CC)nn3)CC2)n1", "Potency": "inconclusive [inhibitor, single point]"}
{"smiles": "Cc1ccc2nc(-c3ccccc3)c(CN3CCSCC3)n2c1", "Potency": "inconclusive [inhibitor, single point]"}
{"smiles": "CC(C)(c1ccccc1)c1ccc(OCC(O)CNC2CCN(Cc3ccccc3)CC2)cc1", "note": "(configuration not stated)", "Potency": "inconclusive [inhibitor, partial curve]"}
{"smiles": "COc1ccc(/C=N/NC(=O)c2cccnc2)cc1", "Potency": "inactive"}
{"smiles": "Cc1ccc2c(c1)c1cccc3c1n2CCN3CCC(N)=O", "Potency": "inconclusive [inhibitor, partial curve]"}
{"smiles": "CC(C)NS(=O)(=O)c1ccc(CCC(=O)Nc2ccc3c(c2)OCCO3)cc1", "Potency": "inconclusive [inhibitor, single point]"}
{"smiles": "CCN1C(=O)C(CC(=O)Nc2ccc(OC)cc2)N(Cc2ccc(OC)c(OC)c2)C1=S", "note": "(configuration not stated)", "Potency": "inconclusive [inhibitor, partial curve]"}
{"smiles": "CC(C)(C)c1ccc(CNc2ccc([N+](=O)[O-])cn2)cc1", "Potency": "inconclusive [inhibitor, partial curve]"}
{"smiles": "Cc1ccccc1-c1ccc(Nc2ccc(N3CCOCC3)cc2)nn1", "Potency": "inconclusive [inhibitor, partial curve]"}
{"smiles": "CN(c1cc2c(c3c1ccn3C)C1CCC2O1)C1CCCCC1", "note": "(configuration not stated)", "Potency": "inconclusive [inhibitor, single point]"}
{"smiles": "COc1ccc2ccccc2c1CN1CCSCC1", "Potency": "inconclusive [inhibitor, single point]"}
{"smiles": "CC1=NN(c2ccccc2)C(=O)/C1=C\\C=C\\c1ccccc1", "Potency": "active: 6.31 µM"}
{"smiles": "Cc1cc(N)c(-n2cc3c(=O)n(C)c(=O)n(C)c3c2)cc1C", "Potency": "inactive"}
{"smiles": "Cc1ccsc1C(=O)N1CCCC(C(=O)c2cc(F)ccc2F)C1", "note": "(configuration not stated)", "Potency": "inactive"}
{"smiles": "Cc1ccc(NC(=O)Cc2nc(CCl)cs2)cc1", "Potency": "inconclusive [inhibitor, single point]"}
{"smiles": "Nc1nc(CN2CCN(c3ccccc3F)CC2)nc(Nc2ccccc2)n1", "Potency": "inconclusive [inhibitor, single point]"}
{"smiles": "COC(=O)c1ccccc1NC(=O)n1cc(C)cn1", "Potency": "inconclusive [inhibitor, single point]"}
{"smiles": "Clc1ccccc1-c1nc2ccccc2c2nncn12", "Potency": "inconclusive [inhibitor, partial curve, poor fit]"}
{"smiles": "CN(c1ccccc1)S(=O)(=O)c1cccc(C(=O)Nc2ccc(N3CCOCC3)cc2)c1", "Potency": "inconclusive [inhibitor, partial curve, poor fit]"}
{"smiles": "Cc1nc2ccc(NC(=S)NC(C)C)cc2nc1C", "Potency": "inactive"}
{"smiles": "COc1ccccc1C(CCNCc1ccc(N(C)C)cc1)c1ccc(OC(C)C)cc1", "note": "(configuration not stated)", "Potency": "active: 8.91 µM"}
{"smiles": "CCCOc1ccccc1-n1sc2c(c1=S)-c1cc(OC)cc3c1N(C(=O)C3=O)C2(C)C", "Potency": "active: 2.82 µM"}
{"smiles": "COc1ccc(CN2C[C@H]3CON(C)[C@H]3C[C@H]2c2ccc(-c3cccc(F)c3)cc2)cc1", "Potency": "inconclusive [inhibitor, partial curve]"}
{"smiles": "COc1ccc(N=C(C)c2c(O)[nH]c(=O)[nH]c2=O)cc1", "Potency": "inactive"}
{"smiles": "Cn1ccc2c(N(Cc3ccccc3)Cc3ccccc3)cc3c(c21)C1CCC3C1", "note": "(configuration not stated)", "Potency": "inconclusive [inhibitor, partial curve]"}
{"smiles": "N#Cc1ccc(CN2C(=O)NC3(CCCCCC3)C2=O)cc1", "Potency": "inactive"}
{"smiles": "O=S(NCc1ccco1)C12CC3CC(CC(C3)C1)C2", "note": "(configuration not stated)", "Potency": "inactive"}
{"smiles": "Cc1cc(C)n2nc(Cc3ccccc3)nc2n1", "Potency": "inconclusive [inhibitor, single point]"}
{"smiles": "COc1cc(/C=C(/C)[N+](=O)[O-])ccc1OCc1ccccc1Cl", "Potency": "inconclusive [inhibitor, partial curve]"}
{"smiles": "CCn1ncc(/C=C/C(=O)Nc2c(C)nn(Cc3ccc(Cl)cc3Cl)c2C)c1C", "Potency": "inconclusive [inhibitor, partial curve, poor fit]"}
{"smiles": "C#CCOCCOCCOCCNc1nc(N2CCN(C(=O)CCCCCCCCCCNC(=O)Cn3cc(C[C@@H](C)O)nn3)CC2)nc(N2CCN(C(=O)CCCCCCCCCCNC(=O)[C@@H]([C@H](C)CC)n3cc(CCCCCN)nn3)CC2)n1", "Potency": "inconclusive [inhibitor, single point]"}
{"smiles": "CCc1ccc(-c2cc(C)no2)cc1S(=O)(=O)NCCCN1CCN(c2ccccc2)CC1", "Potency": "inconclusive [inhibitor, single point]"}
{"smiles": "COc1ccc(S(=O)(=O)NCCc2ccccc2)cc1", "Potency": "inconclusive [inhibitor, single point]"}
{"smiles": "COc1ccc(CCN2C(=O)CSC2=Nc2ccc(C(C)C)cc2)cc1OC", "Potency": "inconclusive [inhibitor, partial curve]"}
{"smiles": "Cc1cccc(-c2nnc(-c3cccc(NC(=O)Cc4cccs4)c3)o2)c1", "Potency": "inactive"}
{"smiles": "O=[N+]([O-])c1cccc(C2CC(c3ccccc3)=NN2c2ccccc2)c1", "note": "(configuration not stated)", "Potency": "inconclusive [inhibitor, partial curve]"}
{"smiles": "CCc1ccc(Nc2n[n+](-c3ccccc3)c(-c3cc(OC)c(OC)cc3Br)s2)cc1", "Potency": "inactive"}
{"smiles": "COc1ccccc1-n1c(=S)sc2c(=O)n(Cc3ccco3)c(SC)nc21", "Potency": "inconclusive [inhibitor, partial curve]"}
{"smiles": "O=C1CCCC2=C1C(c1ccco1)Nc1ccc3ccccc3c12", "note": "(configuration not stated)", "Potency": "inconclusive [inhibitor, partial curve]"}
{"smiles": "CC(C)N(CC#CCC1(O)c2ccccc2-c2ccccc21)CCO", "Potency": "inconclusive [inhibitor, partial curve, poor fit]"}
{"smiles": "COc1ccc(NC(=O)CN2C(=O)C(C)SC(C)C2=O)cc1", "note": "(configuration not stated)", "Potency": "inconclusive [inhibitor, full curve, poor fit]"}
{"smiles": "CCN(CC(=O)Nc1ccc2c(c1)OCCO2)C(=O)/C=C/c1cccc(OC)c1OC", "Potency": "inactive"}
